# Changes are numbered by the printed parent chain. Results are given in words; binding and its absence hold for the method and conditions named. For some of these results: Binding seen in cells or lysates may run through a third protein. Some binding calls cover weakened binding; strength is not graded here. For some of these results: Sequences can lack the tags named with a protein.
# T1: YFP^N-B1L (Arabidopsis thaliana) (UniProt Q9M9U5)
# T1 sequence: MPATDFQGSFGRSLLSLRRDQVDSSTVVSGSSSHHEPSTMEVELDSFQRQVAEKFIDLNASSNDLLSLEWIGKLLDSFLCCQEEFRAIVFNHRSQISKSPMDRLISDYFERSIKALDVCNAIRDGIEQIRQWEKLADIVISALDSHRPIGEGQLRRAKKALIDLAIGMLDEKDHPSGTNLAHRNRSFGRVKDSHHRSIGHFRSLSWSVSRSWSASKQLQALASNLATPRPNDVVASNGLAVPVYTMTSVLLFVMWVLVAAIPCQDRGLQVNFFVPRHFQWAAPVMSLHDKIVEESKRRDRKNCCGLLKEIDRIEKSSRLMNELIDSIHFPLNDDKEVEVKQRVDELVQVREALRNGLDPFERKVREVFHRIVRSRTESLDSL
# T2: YFP^N-B1L^S213D (Arabidopsis thaliana) (UniProt Q9M9U5)
# T2 sequence: T1 sequence with S213D
# T3: YFP^N-B1L^S213A (Arabidopsis thaliana) (UniProt Q9M9U5)
# T3 sequence: T1 sequence with S213A
# T4: B1L-FLAG (Arabidopsis thaliana) (UniProt Q9M9U5)
# T4 sequence: T1 sequence
# T5: BYPASS1-LIKE (B1L), pGBKT7 two-hybrid bait (Arabidopsis thaliana) (UniProt Q9M9U5)
# T5 sequence: T1 sequence
# T6: B1L-C terminal (amino acids 262-382), pGBKT7 two-hybrid bait (Arabidopsis thaliana) (UniProt Q9M9U5)
# T6 sequence: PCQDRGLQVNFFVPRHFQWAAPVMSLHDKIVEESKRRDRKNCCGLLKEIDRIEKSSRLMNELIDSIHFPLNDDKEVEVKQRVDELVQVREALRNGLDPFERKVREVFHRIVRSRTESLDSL
# T7: B1L-N terminal (amino acids 1-238), pGBKT7 two-hybrid bait (Arabidopsis thaliana) (UniProt Q9M9U5)
# T7 sequence: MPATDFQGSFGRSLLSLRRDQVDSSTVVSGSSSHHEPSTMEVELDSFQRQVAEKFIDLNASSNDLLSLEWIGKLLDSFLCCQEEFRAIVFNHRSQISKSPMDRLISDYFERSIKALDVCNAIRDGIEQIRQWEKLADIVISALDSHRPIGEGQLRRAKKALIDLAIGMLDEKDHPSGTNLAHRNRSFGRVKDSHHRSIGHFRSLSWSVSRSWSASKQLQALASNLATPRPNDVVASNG
# T8: B1L^S213A, pGBKT7 two-hybrid bait (Arabidopsis thaliana) (UniProt Q9M9U5)
# T8 sequence: T1 sequence with S213A
# T9: B1L^S213D, pGBKT7 two-hybrid bait (Arabidopsis thaliana) (UniProt Q9M9U5)
# T9 sequence: T1 sequence with S213D
# B1: YFP^C-14-3-3λ (protein, UniProt P48349 1-248)
# chain: MAATLGRDQYVYMAKLAEQAERYEEMVQFMEQLVTGATPAEELTVEERNLLSVAYKNVIGSLRAAWRIVSSIEQKEESRKNDEHVSLVKDYRSKVESELSSVCSGILKLLDSHLIPSAGASESKVFYLKMKGDYHRYMAEFKSGDERKTAAEDTMLAYKAAQDIAAADMAPTHPIRLGLALNFSVFYYEILNSSDKACNMAKQAFEEAIAELDTLGEESYKDSTLIMQLLRDNLTLWTSDMQEQMDEA
# B2: 14-3-3λ-MYC (protein, UniProt P48349 1-248)
# chain: B1 chain
# B3: 14-3-3λ, pGADT7 two-hybrid prey (protein, UniProt P48349 1-248)
# chain: B1 chain
# B4: 14-3-3ψ, pGADT7 two-hybrid prey (protein, UniProt P42644 1-255)
# chain: MSTREENVYMAKLAEQAERYEEMVEFMEKVAKTVDVEELSVEERNLLSVAYKNVIGARRASWRIISSIEQKEESKGNEDHVAIIKDYRGKIESELSKICDGILNVLEAHLIPSASPAESKVFYLKMKGDYHRYLAEFKAGAERKEAAESTLVAYKSASDIATAELAPTHPIRLGLALNFSVFYYEILNSPDRACSLAKQAFDDAIAELDTLGEESYKDSTLIMQLLRDNLTLWTSDMTDEAGDEIKEASKPDGAE
# Assays:
# [1] = biological target: T1, YFP^N-B1L (Arabidopsis thaliana); test: split reporter; BiFC in N. benthamiana leaves, YFP^N and YFP^C fusions, YFP signal by confocal microscopy two days after infiltration; plants pretreated with or without 4°C for 6 h
# [2] = biological target: T2, YFP^N-B1L^S213D (Arabidopsis thaliana); test: as above
# [3] = biological target: T3, YFP^N-B1L^S213A (Arabidopsis thaliana); test: as above
# [4] = biological target: T4, B1L-FLAG (Arabidopsis thaliana); test: co-IP; co-expressed in N. benthamiana leaves; total protein in IP buffer (50 mM Tris-HCl pH 7.6, 150 mM NaCl, 10% glycerol), anti-FLAG agarose overnight at 4°C, blot with anti-MYC and anti-FLAG
# [5] = biological target: T5, BYPASS1-LIKE (B1L), pGBKT7 two-hybrid bait (Arabidopsis thaliana); test: two-hybrid; directed assay: B1L and its variants in pGBKT7, 14-3-3 proteins in pGADT7, strain AH109, growth of serial decimal dilutions on selective media
# [6] = biological target: T6, B1L-C terminal (amino acids 262-382), pGBKT7 two-hybrid bait (Arabidopsis thaliana); test: as above
# [7] = biological target: T7, B1L-N terminal (amino acids 1-238), pGBKT7 two-hybrid bait (Arabidopsis thaliana); test: as above
# [8] = biological target: T8, B1L^S213A, pGBKT7 two-hybrid bait (Arabidopsis thaliana); test: as above
# [9] = biological target: T9, B1L^S213D, pGBKT7 two-hybrid bait (Arabidopsis thaliana); test: as above
binder,measurement,setting,value
B1,binding,[1],binds
same,binding,[2],binds
same,binding,[3],binds
B2,binding,[4],binds
B3,binding,[5],binds
same,binding,[6],no binding
same,binding,[7],binds
same,binding,[8],binds
same,binding,[9],binds
B4,binding,[5],no binding
